Measurements published in the supplement of paper PMC3334620.
Whole data set: some 33,000 sequences, median “E-score (-0.5 to 0.5)” near -0.054, cut for the highest 2% near 0.39. Some of the results follow.

Biological target: Ylr278c (UniProt Q05854)
Test: PBM E-score (8-mer binding enrichment) (E-score (-0.5 to 0.5)); higher = stronger / more preferred TF binding; most listed sequences are background and not binding sites
Conditions: protein concentration: 200 nM; construct: GST-DNA-binding domain
Outline: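 Universal all-10-mer Agilent arrays, double-stranded by primer extension on fresh or once-stripped slides, were probed with about 100-200 nM GST-tagged yeast transcription factors made by PURExpress. Fluorescent anti-GST detected bound protein, and masliner normalised the scans. E-scores from the Universal PBM Analysis Suite were given to each ungapped eight-base word pooled with its reverse complement.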

Sequence | PBM E-score
TAGGAGCA | -0.184
CTGCCCTA | -0.0934
AAGAATGG | 0.125
CGATCGTA | 0.00037
GCAGCCAC | 0.00248
ATACTCCA | -0.0317
CCCGGTTA | 0.264
ACCCTGTG | -0.183
CGAACTCA | -0.0578
CAATCTCA | -0.164
CGGCCGCA | 0.249
AAACCAGT | -0.284
AACTCCAT | 0.214
GCGGTTCC | 0.154
AAACGCGT | 0.00159
ACGGAATC | 0.32
AAAAGTCG | 0.0652
GTGATTAA | -0.0576
GATTCTAC | 0.107
GCACGACA | -0.192
TCGAGAGA | -0.147
CAGAGGGC | 0.00349
ACTACAGG | -0.00991
ATGACGAA | -0.108
CTACCAGC | -0.259

Sequence | PBM E-score
ACTCGGAC | 0.383
AGACTGCC | -0.109
CACCACCG | 0.143
ACTAAGCT | -0.21
AGAAGCGG | 0.24
CCGTGGGC | 0.249
AGCCAGTC | -0.13
AGTTTGAG | -0.0067
AGTATGAA | 0.208
GCAGTCGC | -0.166
ATAGGGGA | -0.141
GGCCGTGA | 0.148
ATGAGGCA | -0.258
GACGTTGC | -0.0429
ATATCATA | -0.0875
ATATGCGC | 0.00517
AGGTACCC | -0.262
CTTATAGC | -0.203
CATCCAAC | -0.114
CATAGTAG | -0.163
CTATGAGC | -0.3
AAGTCCCC | 0.0247
AACCCGGG | 0.319
GAGGGTGA | -0.183
TAGCTAGA | -0.285

Sequence | PBM E-score
AAGTACGG | 0.0776
CGGCACCG | 0.378
AATGCCGC | 0.352
CACGACTC | -0.12
GAACAACC | 0.1
CAATGCTC | -0.0684
ATTGTAAG | -0.175
CAAACTTG | -0.104
ACGCGCAC | 0.0133
GAAGAGCA | -0.0722
CAAGAGCA | -0.262
ATCCACCA | -0.234
CCACGCAA | -0.0373
CTTGCTTA | -0.123
TACACCGA | 0.242
ATATGCCA | 0.0234
AACCCGGT | 0.304
GAAAAGGC | 0.0827
AACACATA | -0.188
GTGCCTGA | -0.0603
TCAACAAA | -0.0688
ACAACGGT | -0.167
ACACGGTA | 0.0246
AAACGATG | 0.0454
TAGCTGCA | -0.184

Sequence | PBM E-score
ATATGGGC | -0.0292
CCACCGAC | 0.0976
AAAGAGAT | -0.185
TACAGATA | 0.0234
AATCCTGC | -0.069
AGAATGAA | -0.173
TAGTTGGA | 0.0205
TCGGCTAA | 0.122
AGACGGTA | -0.103
GCTCAGAC | -0.152
AACCCGTT | 0.0139
ACTCGAGT | -0.225
CACCCAGC | -0.00607
AGGCAGCC | 0.0103
AAAACGGG | 0.192
AATTGGGG | -0.0147
GAAGCTCA | -0.098
CGCCTCCC | -0.0118
CCGGATAG | 0.347
ACCAAAAG | -0.224
AATGCAGC | -0.184
GGGGCATA | 0.00676
ACCGAGTG | -0.0762
TCATAAGA | -0.123
TACATCCA | -0.235

Sequence | PBM E-score
CGCGGTAC | 0.212
AGGCTGCG | -0.179
CCTGGGCC | -0.0612
TAATTTCA | -0.0427
CCAGTAAA | -0.0398
AGTATTCA | -0.063
TCATCCCA | -0.268
GACTCTAA | 0.00309
CGACCGGA | 0.409
GTGGAAGA | -0.118
TATTGAGA | -0.023
CCTTTAAG | -0.27
ACCGGCGG | 0.402
CGGCCGAC | 0.309
ACAGAGAA | -0.124
CTAGGTGC | -0.163
ACTGGCGG | 0.17
GTAAGTCA | -0.17
CGAAAAAG | 0.105
ACGCCCGA | 0.249
ACTTCCCA | -0.15
GCATCAAC | 0.0558
AAAATTTA | -0.0856
CCTGTAAG | -0.28
AGCATTTG | -0.0183

Sequence | PBM E-score
AAAGAAGG | -0.134
GCGAAAGC | -0.0157
AGTACAGG | -0.207
ATAATGTC | 0.194
CCGTAACA | 0.0638
CGGCTGGC | 0.0963
ACTTCCAA | -0.204
ATGCACAT | -0.11
ATTTGTCA | -0.182
ATGTAAGA | -0.0831
ACACGACG | -0.147
AATCAAGT | -0.178
ACTAGAAT | -0.0455
AACTATGT | -0.0275
ACCAGGGA | -0.254
CCGGGGAG | 0.346
GTGACTCA | -0.241
ACCACCTG | 0.037
GCAGTCAC | -0.224
CAAACCGC | 0.138
ACGCGCAA | 0.163
CACTCATA | -0.157
CGATGCCA | -0.096
AATTGTTG | -0.227
GATAAAGA | -0.0748

Sequence | PBM E-score
ACAGATTG | -0.0774
AAGGGCTC | -0.299
AATTTGGA | -0.204
CAAAGTAA | 0.0244
ACTTCAAA | -0.0999
ACCCTTCG | 0.0769
ACCAATGC | 0.117
CCATCCGG | 0.229
CGATATAA | -0.0278
CCGGAAAA | 0.453
AGAATTGG | -0.122
GTAGGCAC | -0.15
CTACACAG | -0.232
AACGATTC | 0.0311
ACTTTCGG | 0.217
CAAGTCGG | 0.16
ACGAACTA | -0.172
CTCTTCAA | -0.116
GATTTTCC | 0.263
AAACTGAC | -0.00553
TCGGTCCA | -0.0418
GTACTGTA | -0.103
ATGGCGAC | -0.0804
ACTAATAG | -0.0539
AAGCTCCG | 0.477

Sequence | PBM E-score
AGCGAAGA | -0.0955
AAACACAG | 0.015
TCGTCAAA | -0.0475
CCCGTTAC | 0.0521
CTACGGTA | -0.0408
CGGGGTGC | 0.287
CCTGCTTA | -0.129
CTGCTGTA | -0.0872
GAGATGTA | 0.0851
GAAGAAGA | -0.0787
AAACTGCT | -0.22
ATCCCCTC | -0.202
CGTACGAA | -0.0657
CTTGTTAA | 0.114
AACTGCCT | -0.115
AAACTGTC | -0.277
ACTAGTCA | -0.309
CTCGCATA | -0.219
AAGGGTTG | -0.257
AAATATCA | -0.185
CCCGATAC | 0.204
GTGCCAAA | -0.127
AAGTTACC | 0.047
CTACGAAC | -0.151
CCGGCCCA | 0.284

Sequence | PBM E-score
ATACAGAT | -0.122
TCTGAACA | -0.203
ATGGTCTA | -0.294
CCAATAGG | -0.0412
CTATTAGA | -0.156
GAAACGTC | -0.0375
AGAGTGAT | -0.174
CTTTAACA | -0.0348
GTTAATTA | 0.0295
ATGTTCTC | -0.111
CTACTTTC | -0.0554
AGCCGGGA | 0.272
ATGTCAGC | -0.19
ACGGTTCT | -0.239
CGCGGCGA | 0.324
AACGGACG | 0.235
CCGCATTA | 0.329
ATACCCTC | 0.0353
ATCGAGTA | -0.157
AGTTATGA | -0.0588
CTTTGTGC | -0.122
TCCACTCA | -0.14
GTGTGCGA | -0.0797
CGGTCGAC | 0.268
GTTGAGGA | -0.116

Sequence | PBM E-score
AAAATAAA | 0.0366
ATTCAAAA | -0.0484
TGATGCCA | -0.207
CGGTTGTA | -0.0449
CGGCGAAC | 0.377
TGAACTCA | -0.232
GCCCTGAA | -0.0286
AATCGCTA | -0.143
CCTAAAGC | -0.195
ACCCAACG | -0.0574
ATCCATAC | -0.145
GGGAGTAC | 0.0396
GGGTAGAA | -0.0907
ATGAAATA | 0.0645
CTTCAACC | -0.0749
GCAGGCCC | -0.145
ATATGGAC | -0.165
CCCATTCC | -0.043
AAACTCCC | 0.322
AAGATTAG | 0.00781
GATGTCCC | 0.245
ATTTTCGA | -0.0717
GCCTTAGC | -0.017
GTGGTCTA | -0.117
AACTAGAA | -0.124

Sequence | PBM E-score
GTCAGGAC | -0.266
CCTAACCC | -0.0948
ACGATGCT | -0.0929
AGCGCCCG | 0.118
ACACCGTC | 0.157
CTAGTAGA | -0.103
CACGGCCC | -0.0124
CTTGGGAA | -0.0652
AATAGAAC | 0.101
CAGTTGAC | 0.0904
CCGCGCCA | 0.182
GCGTTGAA | 0.0119
GTCGATCA | -0.216
GCCCGGTA | 0.26
GGTTTCAA | 0.169
ACTTTCTC | 0.16
CGTAAATA | 0.0844
ATTTTCCG | 0.421
ATTCGTTA | -0.127
AATCTTGA | -0.172
CGGACTGC | 0.318
AATGCATG | -0.0764
ATTGAGCG | 0.0335
GCTGCCCC | -0.0402
AGGCATGG | -0.0498

Sequence | PBM E-score
ACCCATAA | 0.103
CAGTTAAC | 0.135
GCCCCCTA | -0.281
AGATCGAG | -0.0887
CGCCCGCA | 0.221
CACGCTAA | -0.0491
AGTGCCTG | -0.112
AGCATGCC | -0.0212
GGAAGTCA | 0.111
GGGGTCAA | 0.0985
AAACGAGA | 0.0181
AATGCTTA | -0.223
GATCCCCA | 0.0317
CGAATCTA | -0.127
TGGCAGAA | -0.103
CCCTGTTC | -0.195
CAACTGGG | -0.0669
ATCTCGCG | 0.0561
GAGCACAC | -0.212
CTTCCAAG | -0.204
GTTGCATA | -0.161
AGTCTCAG | -0.28
ATCTACTA | -0.00413
AAGCCATG | -0.0953
ATGTTAAC | -0.0506

Sequence | PBM E-score
ACTGTTTA | -0.202
AACATAAG | -0.0375
CACTCAGG | -0.085
AACCCACC | 0.211
GACACCGA | 0.129
AGCAGCTA | -0.241
CCAATCGA | -0.112
GATACTTA | -0.107
GCCTAGGC | -0.133
ACGTCTAG | -0.251
CCTGGCTC | -0.101
AGTGACCG | 0.0485
ACTCACGG | 0.204
ACCGTGGA | 0.147
CAGTAAGA | -0.0767
CCGACGAA | 0.324
AGTGGTGC | -0.0921
AGGTGAGC | -0.0782
ACCCCCTG | -0.225
GCCTGACC | -0.00172
GTCAACCA | -0.208
ATGACGAC | -0.0126
ACTAAACA | -0.00902
CGTCATTA | -0.0302
AACCAACA | -0.129

Sequence | PBM E-score
ATCATCCC | -0.101
CGTTTATC | 0.083
ATAGTGGG | -0.0278
ACCACGCG | 0.061
CGCGTGGA | -0.0162
CGTGGCAG | -0.156
GTTAGGGA | -0.234
CACGTTCG | 0.0568
CTAGGAGA | -0.154
AACCGCGT | 0.0923
ATACAAAC | 0.0395
GTACTTAA | -0.169
CACAGGTC | -0.0954
ATAGGCCG | 0.251
GAATTGGA | -0.146
CGTTGCCC | 0.0478
CCCCTAAG | -0.24
CACGTAGC | -0.143
CATGAACC | 0.0357
